# The campaign covered roughly 370,000 compounds. About 150 (0.041%) were called active. Inconclusive results, whose numbers are uncertain, are shown with a selection of clear calls. Calls come from the whole dose curve; as a rule, active = well fitted inhibition curve with a large enough effect; inconclusive = small, poorly fitted or top-dose-only effect; inactive = flat fitted curve, though single readings scatter. No potency is given beside an inconclusive call; the fits are too rough.
# Molecular target: Beta-lactamase (Escherichia coli (strain K12)) (UniProt P00811)
# Chain of UniProt P00811 (P00811 whole entry, looked up): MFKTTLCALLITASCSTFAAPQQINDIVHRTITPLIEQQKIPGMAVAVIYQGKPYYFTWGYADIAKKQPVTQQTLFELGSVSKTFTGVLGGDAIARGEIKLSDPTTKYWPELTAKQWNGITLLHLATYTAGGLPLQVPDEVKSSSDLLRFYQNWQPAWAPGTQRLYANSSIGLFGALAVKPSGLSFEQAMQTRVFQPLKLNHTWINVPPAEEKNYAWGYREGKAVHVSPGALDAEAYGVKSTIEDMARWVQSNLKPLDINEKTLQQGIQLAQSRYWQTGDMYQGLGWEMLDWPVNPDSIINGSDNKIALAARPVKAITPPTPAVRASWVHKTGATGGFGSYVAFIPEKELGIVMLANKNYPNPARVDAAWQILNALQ
# Test: qHTS Inhibitors of AmpC Beta-Lactamase (assay with detergent); note: nearly all actives have a fitted effect of over 25% in size
# Details: AmpC hydrolysis of nitrocefin, absorbance 480 nm, 0.01% Triton; series mostly up to 114 µM
# In short: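 AmpC (5.3 nM in the dispensed reagent) in 20 mM phosphate pH 7.0 with 0.01% (detergent screen) or 0.0001% Triton X-100 was preincubated with compounds for 15 min at room temperature. Nitrocefin was then added from an 800 uM solution, and hydrolysis was followed at 480 nm.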
# Potency is the fitted concentration of half-maximal effect; tags give direction and shape of the fitted curve.
row,SMILES,Potency
1,COCc1cc(=O)[nH]c(/N=C(\N)Nc2ccc(Cl)c(Cl)c2)n1,inactive
2,O=C(Nc1nc(N2C(=O)c3ccccc3C2=O)n(-c2ccccc2)n1)c1ccc(F)cc1,inactive
3,COc1ccc(S(=O)(=O)N2CCC(C(=O)c3ccc4c(c3)OCCO4)CC2)cc1,"inconclusive [inhibitor, full curve]"
4,CN1CCN(CC(=O)Nc2ccccc2C(F)(F)F)CC1,inactive
5,CCc1ccc(N(CC(=O)Nc2ccc(OC)cc2OC)S(C)(=O)=O)cc1,"inconclusive [inhibitor, single point]"
6,Cc1ccsc1/C=N/NC(=O)CC(=O)NCC(C)C,"inconclusive [inhibitor, full curve]"
7,COC(=O)c1cc(=O)c2c(C)nc(C(Cl)(Cl)Cl)nc2[nH]1,"inconclusive [inhibitor, full curve, poor fit]"
8,Cc1ccc(-n2c(SCC(=O)NCC3CCCO3)nnc2-c2ccoc2C)cc1 (configuration not stated),"inconclusive [inhibitor, full curve, poor fit]"
9,Cc1cc2c(cc1C)NC(CC(=O)NCc1ccccc1)C(=O)N2 (configuration not stated),"inconclusive [inhibitor, full curve, poor fit]"
10,Cc1cc(C(=O)CN2C(=O)NC3(CCCCC3)C2=O)c(C)n1Cc1ccco1,inactive
11,Ic1ccc(N2CCN(Cc3c[nH]c4ncccc34)CC2)cc1,"inconclusive [inhibitor, full curve, poor fit]"
12,CC(C)Oc1ccc(C(=O)Nc2nc3ccccc3[nH]2)cc1,"inconclusive [inhibitor, partial curve, poor fit]"
13,COc1cccc(NC(=O)c2cc(OC)c(OC)c(OC)c2Br)c1,"inconclusive [inhibitor, full curve, poor fit]"
14,COc1cccc(C2C3=C(N=c4s/c(=C\c5ccc(O)cc5)c(=O)n42)c2ccccc2CC3)c1OC (configuration not stated),inactive
15,O=C1CN(c2nc(-c3cccs3)nc3sc4c(c23)CCCC4)CCN1,inactive
16,COc1cc(C(=O)NC(=S)N2C[C@H]3C[C@H](C2)c2cccc(=O)n2C3)cc(OC)c1OC,inactive
17,C/C(=N/NC(=O)CN1CCN(S(=O)(=O)c2ccc(Br)cc2)CC1)c1cccnc1,"inconclusive [inhibitor, partial curve, poor fit]"
18,O=C(COC(=O)c1cc2ccccc2o1)c1ccccc1,"inconclusive [inhibitor, full curve]"
19,CCOC(=O)N1CCN(c2c(N3CCN(c4cccc(C)c4C)CC3)c(=O)c2=O)CC1,"inconclusive [inhibitor, partial curve, poor fit]"
20,COCC(=O)NCCSc1c(C)[nH]c2ccccc12,"inconclusive [inhibitor, full curve, poor fit]"
21,O=c1oc(-c2ccccc2)nc2c1cnn2-c1ccccc1,"inconclusive [inhibitor, full curve]"

row,SMILES,Potency
1,CCOC(=O)N1CCN(C(=O)C2CCCN(S(=O)(=O)c3cc(C)ccc3OC)C2)CC1 (configuration not stated),inactive
2,CN(C)S(=O)(=O)c1ccc(Cl)c(NC(=O)CN2CCNC(=O)C2)c1,inactive
3,COc1ccc(/C=N/NC(=O)CC2N=C(Cc3ccccc3)NNC2=O)cc1OC (configuration not stated),"inconclusive [inhibitor, full curve, poor fit]"
4,Cc1ccc(C(=O)c2coc3cc([N+](=O)[O-])c(O)c([N+](=O)[O-])c23)cc1,inactive
5,O=C(CSc1nc(C(F)(F)F)cc(=O)[nH]1)Nc1ccc2c(c1)OCCO2,"inconclusive [inhibitor, full curve]"
6,CN(CCOc1ccccc1)CC(=O)Nc1ccc(Cl)c(S(=O)(=O)N(C)C)c1,"inconclusive [inhibitor, full curve, poor fit]"
7,COc1cc(/C=N\Nc2nc(-c3ccc(C)cc3)c(NC(C)=O)s2)ccc1O,inactive
8,CSc1ncccc1C(=O)Nc1ccc(OC(F)(F)F)cc1,inactive
9,CC(CCCC(C)(C)O)NC(=O)c1cc(COc2ccc3ncccc3c2)on1 (configuration not stated),inactive
10,COc1ccc2[nH]c(=O)c(CN(CCO)C(=O)c3ccccc3F)cc2c1,"inconclusive [inhibitor, full curve, poor fit]"
11,Cc1nc(NC(=O)C2CC2)sc1C(=O)N1CCCCC1,"inconclusive [inhibitor, full curve, poor fit]"
12,Cc1cccc(CSC2=NCCN2C(=O)c2ccco2)c1,"inconclusive [inhibitor, full curve, poor fit]"
13,Cc1nn(-c2ccc(Cl)cc2)c2sc(C(=O)N3CCN(C(=O)c4ccco4)CC3)cc12,"inconclusive [inhibitor, partial curve, poor fit]"
14,COC(=O)CCC(=O)NC1CC(C)(C)Cc2c1cnn2-c1ccccc1 (configuration not stated),"inconclusive [inhibitor, full curve, poor fit]"
15,COc1ccc(C(=O)Nc2ccccc2C(N)=O)cc1,"inconclusive [inhibitor, full curve, poor fit]"
16,O=C1C=C(c2cc(Cl)cc(Cl)c2)C[C@@H](c2ccc3c(c2)OCO3)C1,"inconclusive [inhibitor, partial curve, poor fit]"
17,Cc1oc(-c2ccccc2F)nc1CS(=O)(=O)CC(=O)N1CCOCC1,"inconclusive [inhibitor, full curve, poor fit]"
18,CCCCC(CC)CNC(=O)C1CCCN(S(=O)(=O)c2cnc[nH]2)C1 (configuration not stated),"inconclusive [inhibitor, full curve]"
19,O=C(COC(=O)c1cc(=O)[nH]c2ccccc12)NC(=O)NC1CCCCC1,"inconclusive [inhibitor, partial curve]"
20,C=CCn1c(SCC(=O)N2CCOCC2)nc2scc(-c3ccco3)c2c1=O,"inconclusive [inhibitor, partial curve, poor fit]"
21,COc1ccccc1-c1c(C)nn2c(-c3ccccc3)cc(C)nc12,inactive
